{
  "source": "PubChem BioAssay AID1865",
  "about": "(National Center for Advancing Translational Sciences (NCATS), 2009)",
  "note": "In all, about 280,000 compounds went through this assay and about 540 (0.19%) were called active. The inconclusive results got no clear call from the source; some entries with a clear call stand among them for comparison. The call rests on the fitted dose curve; in most records, active means well fitted activation curve with a large enough effect; inconclusive means small, poorly fitted or top-dose-only effect; inactive means flat fitted curve, though single readings scatter. Where the call is inconclusive, the potency comes from a doubtful curve fit. Potency means the concentration at half of the fitted maximal effect; tags describe the fitted curve by direction and shape.",
  "data": [
    {"experiment": "Quantitative High-Throughput Screen for Regulators of Epigenetic Control; further: nearly all actives have a fitted effect of over 60% in size", "settings": "murine LDR cells, GFP reporter derepression, 30 h; series mostly up to 53.9 µM", "how_it_was_run": "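Murine LDR cells carrying a silenced, genomically integrated CMV-driven GFP reporter were exposed to compound for 30 hours at 37 C. After PBS washes, GFP-positive cells (20–120 um objects) were counted by laser-scanning microplate cytometry.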", "values": [
      {"smiles": "CCCCn1c(SCC(=O)Nc2cc(NC(=O)c3ccco3)ccc2C)nc2ccccc2c1=O", "Potency": "inconclusive: 35.5 µM [activator, single point]"},
      {"smiles": "O=C(NNC(=S)NC1CCCCC1)c1sc2ccccc2c1Cl", "Potency": "inactive"},
      {"smiles": "Cc1ccc(NC(=O)c2cccn2-c2nnc(N3CCCCC3)s2)cc1Cl", "Potency": "inactive"},
      {"smiles": "Cc1ccc2nc3c(cc(C(N)=S)c(=N)n3CCCOC(C)C)c(=O)n2c1", "Potency": "inconclusive: 31.6 µM [activator, single point]"},
      {"smiles": "CCN(CC)CCNC(=O)Cn1ncc2c([nH]c3ccccc32)c1=O", "Potency": "inactive"},
      {"smiles": "CCCCNC(=O)CCCn1c(=O)c2ccccc2n(Cc2ccccc2C)c1=O", "Potency": "inactive"},
      {"smiles": "CC(C)(C)NC(=O)C(c1ccncc1)N(Cc1ccco1)C(=O)c1ccc(-c2ccccc2)[nH]1", "note": "(centres undefined)", "Potency": "inconclusive: 35.5 µM [activator, single point]"},
      {"smiles": "COC(=O)/C(=C/c1cn(C)c2ccccc12)[N+](=O)[O-]", "Potency": "inactive"},
      {"smiles": "COc1ccc2o/c(=N/NC(=S)Nc3ccccc3)c(C(N)=O)cc2c1", "Potency": "inconclusive: 5.62 µM [activator, single point]"},
      {"smiles": "Nc1nc(SCc2ccc(Cl)cc2Cl)nc2nc3c(cc12)CCCC3", "Potency": "active: 17.8 µM"},
      {"smiles": "Cc1ccc(NC(=O)C2CCN(C(=O)NC3CCCCC3)CC2)cc1Cl", "Potency": "inconclusive: 20 µM [activator, partial curve, poor fit]"},
      {"smiles": "Cc1ccc(NC(=O)Cn2c(-c3ccc4c(c3)OCO4)cn(-c3ccccc3)c2=O)cc1", "Potency": "inactive"},
      {"smiles": "CCN(CC)c1ccc(S(=O)(=O)N2CCOCC2)cc1NC(=O)CN1CCN(Cc2ccccc2)CC1", "Potency": "inactive"},
      {"smiles": "CCCN1C(=O)c2cccc3c(N4CCCCC4)ccc(c23)C1=O", "Potency": "inactive"},
      {"smiles": "O=C(COc1ccc(Cl)cc1)Nc1c(-c2cccs2)nc2ccccn12", "Potency": "inconclusive: 31.6 µM [activator, single point]"},
      {"smiles": "Brc1cc(Br)c2nc(-c3cccs3)ccc2c1", "Potency": "inactive"},
      {"smiles": "Cc1nc2cc(N3CCCCC3)c(NC(=O)c3cccnc3)cc2c(=O)n1Cc1ccccc1", "Potency": "inconclusive: 35.5 µM [activator, single point]"},
      {"smiles": "Nc1nonc1-c1nc2ccccc2n1Cc1ccc(F)cc1Cl", "Potency": "inconclusive: 35.5 µM [activator, single point]"},
      {"smiles": "N#Cc1c(N)oc(-c2ccccc2)c1-c1ccccc1", "Potency": "inconclusive: 6.31 µM [activator, single point]"},
      {"smiles": "COc1ccc(-c2ccnc3c(-c4ccc(F)cc4)c(C)nn23)cc1OC", "Potency": "inconclusive: 35.5 µM [activator, single point]"},
      {"smiles": "Cc1cccc(C(=O)Nc2cccc(OCc3cc(=O)n4cc(C)sc4n3)c2)c1", "Potency": "inconclusive: 25.1 µM [activator, single point]"},
      {"smiles": "CCn1c(CNC(=O)C(C)(C)C)nc2ccccc21", "Potency": "inactive"},
      {"smiles": "CCOc1ccccc1-c1noc(CCCC(=O)Nc2cccc(C(F)(F)F)c2)n1", "Potency": "inconclusive: 15.8 µM [activator, partial curve]"},
      {"smiles": "COCCOC(=O)C1=C(C)OC(N)=C(C#N)C1c1cc2cccc(C)c2nc1Cl", "note": "(centres undefined)", "Potency": "inconclusive: 28.2 µM [activator, single point]"},
      {"smiles": "COCCNc1nc(-c2ccc(N(C)C)cc2)nc2ccccc12", "Potency": "inconclusive: 35.5 µM [activator, single point]"},
      {"smiles": "COc1ccc(N/C=C2\\C(=O)CCc3c2oc2cc(Cl)c(O)c(Cl)c32)cc1", "Potency": "inconclusive: 25.1 µM [activator, single point]"},
      {"smiles": "Cc1ccc(N2C(=O)c3ccc(C(=O)N4CCN(Cc5ccccc5)CC4)cc3C2=O)cc1", "Potency": "inactive"},
      {"smiles": "NC(=O)c1ccccc1Nc1nc2nc3ccccc3c(=O)n2cc1Br", "Potency": "inconclusive: 35.5 µM [activator, single point]"},
      {"smiles": "CCCN(CCC)CC(O)Cn1cc(/C=C/C(=O)c2ccc(OC)cc2)c2ccccc21", "note": "(centres undefined)", "Potency": "inactive"},
      {"smiles": "COc1ccc(C2C(C(C)=O)=C(C)N=c3s/c(=C\\c4cc(C)n(C)c4C)c(=O)n32)c(OC)c1", "note": "(centres undefined)", "Potency": "inconclusive: 22.4 µM [activator, single point]"},
      {"smiles": "CCOc1ncccc1C(=O)Nc1nnc(C)s1", "Potency": "inconclusive: 35.5 µM [activator, single point]"},
      {"smiles": "COc1ccc(-c2cc(-c3cccnc3)c(C#N)c(N)n2)cc1", "Potency": "inconclusive: 20 µM [activator, single point]"},
      {"smiles": "COC(=O)NC(c1ccccc1)c1c[nH]c2ccccc12", "note": "(centres undefined)", "Potency": "inactive"},
      {"smiles": "O=C(N/N=C/c1ccc(OCc2ccccc2)cc1)c1cc[n+](Cc2ccccc2)cc1", "Potency": "inactive"},
      {"smiles": "COc1ccc(-c2nc(C)c(CCNC(=O)c3c(F)cccc3F)s2)cc1", "Potency": "inactive"},
      {"smiles": "Cc1ccc(C)c(Cn2c(=O)n(CCC(=O)NCc3ccc4c(c3)OCO4)c(=O)c3sccc32)c1", "Potency": "inconclusive: 35.5 µM [activator, single point]"},
      {"smiles": "Cn1c(=O)c([N+](=O)[O-])c(NCCc2ccccc2)c2ccccc21", "Potency": "inactive"},
      {"smiles": "OCCN(Cc1ccccc1)CC(O)COc1ccc(-c2ccccc2)cc1", "note": "(centres undefined)", "Potency": "inactive"},
      {"smiles": "COc1cccc(C(=O)N(Cc2ccco2)c2ccccn2)c1", "Potency": "inactive"},
      {"smiles": "COc1ccc(NC(=O)/C(C#N)=C\\c2cc(C)n(-c3ccc4c(c3)OCO4)c2C)cc1", "Potency": "inconclusive: 31.6 µM [activator, single point]"},
      {"smiles": "COC(=O)c1ccc2c(c1)C(C)(C)C(/C=C/c1ccc(O)cc1)=[N+]2C", "Potency": "inconclusive: 5.62 µM [activator, single point]"},
      {"smiles": "CN(C)c1ccc(C=Nc2ccccc2)cc1", "Potency": "inconclusive: 3.98 µM [activator, partial curve]"},
      {"smiles": "Cc1ccc(-c2nn(-c3ccccc3)cc2CNCc2ccccc2)cc1", "Potency": "inactive"},
      {"smiles": "COC1=C/C(=C/c2c(N)n3nc(-c4ccc(C)cc4)sc3nc2=O)C=CC1=O", "Potency": "inconclusive: 17.8 µM [activator, single point]"},
      {"smiles": "CC1=CC2=NC(=O)/C(=C\\c3cc(C)n(-c4ccccc4)c3C)C(=N)N2O1", "Potency": "inconclusive: 35.5 µM [activator, single point]"},
      {"smiles": "Cc1conc1NC(c1cccs1)c1ccc2cccnc2c1O", "note": "(centres undefined)", "Potency": "inconclusive: 35.5 µM [activator, single point]"},
      {"smiles": "Cc1cc(C)c(C)c(S(=O)(=O)ON2C(=O)c3ccccc3C2=O)c1C", "Potency": "inconclusive: 31.6 µM [activator, single point]"},
      {"smiles": "CO[C@H]1C[C@@H]2CC[C@@H](C)[C@@](O)(O2)C(=O)C(=O)N2CCCC[C@H]2C(=O)OC([C@H](C)C[C@@H]2CC[C@@H](O)[C@H](OC)C2)CC(=O)[C@H](C)/C=C(\\C)[C@@H](O)[C@@H](OC)C(=O)[C@H](C)C[C@H](C)/C=C/C=C/C=C/1C", "note": "(some centres undefined)", "Potency": "inactive"},
      {"smiles": "Cc1cccc(OCC(=O)N/N=C/C=C/c2ccco2)c1", "Potency": "inconclusive: 25.1 µM [activator, single point]"},
      {"smiles": "CC(=O)c1nnn(-c2ccc(C)cc2Cl)c1C", "Potency": "inconclusive: 3.98 µM [activator, single point]"},
      {"smiles": "Cc1cc(C)n2nc(/C(C#N)=C/c3ccccn3)c(C#N)c2n1", "Potency": "inconclusive: 5.62 µM [activator, single point]"},
      {"smiles": "CCC(=O)C1=C(c2ccc(OC)c(OC)c2)N(C(=O)CC)n2c(CC)nnc2S1", "Potency": "inactive"},
      {"smiles": "O=C(CSc1nnc(-c2ccncc2)n1Cc1ccco1)OC1CCCCC1", "Potency": "inactive"},
      {"smiles": "COc1cc(NC(=O)CCS(=O)(=O)c2nc(-c3ccc4c(c3)OCO4)cc(C(F)(F)F)n2)cc(OC)c1OC", "Potency": "inconclusive: 35.5 µM [activator, single point]"},
      {"smiles": "Cc1ccc(C(C[N+](=O)[O-])c2c(-c3ccccc3O)[nH][nH]c2=O)cc1", "note": "(centres undefined)", "Potency": "inconclusive: 3.98 µM [activator, single point]"},
      {"smiles": "CC(=O)Nc1ccc(N=NN2CCOCC2)cc1", "Potency": "inconclusive: 35.5 µM [activator, single point]"},
      {"smiles": "Cc1nn(-c2ccccc2)c2c1cc1c(=O)n(C)c(=O)nc-1n2-c1cccc(Cl)c1", "Potency": "inactive"},
      {"smiles": "O=C(O)CCc1ccc(-c2ccccc2)o1", "Potency": "inconclusive: 35.5 µM [activator, single point]"},
      {"smiles": "CC(NC(=O)/C=C/c1ccco1)c1nc2ccccc2n1Cc1cccc(Cl)c1", "note": "(centres undefined)", "Potency": "inconclusive: 35.5 µM [activator, single point]"},
      {"smiles": "CN(C)/C=C/C(=O)c1ccc(S(=O)c2ccccc2)cc1", "note": "(centres undefined)", "Potency": "inconclusive: 35.5 µM [activator, single point]"},
      {"smiles": "COC(=O)c1ccccc1NC(=O)c1sc2nc(C)cc(C)c2c1NC(=O)c1ccccc1Cl", "Potency": "inconclusive: 6.31 µM [activator, single point]"},
      {"smiles": "CNCCCCc1cnc(C)c2[nH]c3ccccc3c12", "Potency": "inconclusive: 35.5 µM [activator, single point]"},
      {"smiles": "N=C1S/C(=C\\c2ccco2)C(=O)N1c1nccs1", "Potency": "inconclusive: 25.1 µM [activator, single point]"},
      {"smiles": "Cc1ccc(NC(=O)c2c(C)nc3sc(C(=O)NC4CCCC4)c(N)c3c2-c2ccco2)c(C)c1", "Potency": "inconclusive: 3.55 µM [activator, full curve]"},
      {"smiles": "Cc1cccc(NC(=O)CSc2nc(C)cc(C)c2C(=O)Nc2ccc(Cl)cc2)c1", "Potency": "inactive"},
      {"smiles": "N#C/C(=C\\c1ccc(Cl)c([N+](=O)[O-])c1)c1ccccn1", "Potency": "inconclusive: 14.1 µM [activator, single point]"},
      {"smiles": "Cc1cccc(-c2nc3c4ccccc4n(CC(=O)Nc4cccc(F)c4)c(=O)n3n2)c1", "Potency": "inconclusive: 35.5 µM [activator, single point]"},
      {"smiles": "O=S1(=O)N=C(SCCO)c2ccccc21", "Potency": "inconclusive: 6.31 µM [activator, single point]"},
      {"smiles": "O=c1cc(CO)oc(C(Nc2ccccn2)c2ccccc2Cl)c1O", "note": "(centres undefined)", "Potency": "inactive"}
    ]}
  ]
}
